Test results: the supplement of paper PMC4604168 (melanoma cell lines)
Some of the results follow. Many values rest on one well or one pass, so single values are uncertain.

Test system: A375
Assay: cell count relative to DMSO control; melanoma cells; higher = more viable cells
Conditions: library dose: standard library concentration; 72 h
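Note: cells treated in 1,536-well plates, then fixed and DAPI-stained, with nuclei counted from automated high-throughput microscope images.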

For `C[As](C)SC[C@H](NC(=O)CC[C@H](N)C(=O)O)C(=O)NCC(=O)O` [Darinaparsin] + Oc1cc(-c2nc(-c3ccccc3)[nH]c2-c2ccncc2)ccc1Cl [L779450] (first compound 2 µM, partner dose 1 µM), which cell count is on record?
Its cell count is 76.1%.

With `Cn1cc(C2=C(c3cn(C4CCN(Cc5ccccn5)CC4)c4ccccc34)C(=O)NC2=O)c2ccccc21` [Enzastaurin] + OCCn1cc(-c2cnc3nnn(Cc4ccc5ncccc5c4)c3n2)cn1 [PF04217903] (first compound 4 µM, partner dose 5 µM) as the molecule, how does the cell count read?
Its cell count is 108%.

With `C[As](C)SC[C@H](NC(=O)CC[C@H](N)C(=O)O)C(=O)NCC(=O)O` [Darinaparsin] + CN(C)S(=O)(=O)c1ccc2c(c1)/C(=C/c1cc3c([nH]1)CCCC3)C(=O)N2 [SU6656] (first compound 2 µM, partner dose 2 µM) as the molecule, how does the cell count read?
Its cell count is 108%.

`C[C@]12O[C@H](C[C@]1(O)CO)n1c3ccccc3c3c4c(c5c6ccccc6n2c5c31)CNC4=O` [Lestaurtinib] + COCC[n+]1c2c(n(Cc3cnccn3)c1C)C(=O)c1ccccc1C2=O [YM155] (first compound 0.02 µM, partner dose 0.002 µM) was tested. Which cell count did it give?
Its cell count is 93.3%.

How did the cell count turn out when `C[C@]12O[C@H](C[C@]1(O)CO)n1c3ccccc3c3c4c(c5c6ccccc6n2c5c31)CNC4=O` [Lestaurtinib] + O=C(CCCCCCC(=O)Nc1ccccc1)NO [vorinostat] (first compound 0.02 µM, partner dose 0.4 µM) was run?
Its cell count is 119%.

How did the cell count turn out when `C[C@]12O[C@H](C[C@]1(O)CO)n1c3ccccc3c3c4c(c5c6ccccc6n2c5c31)CNC4=O` [Lestaurtinib] + Nc1nc(F)nc2c1ncn2[C@@H]1O[C@H](CO)[C@@H](O)[C@@H]1O [fludarabine] (first compound 0.02 µM, partner dose 1 µM) was run?
Its cell count is 52%.

`C[C@]12O[C@H](C[C@]1(O)CO)n1c3ccccc3c3c4c(c5c6ccccc6n2c5c31)CNC4=O` [Lestaurtinib] + CC1(C)NC(=O)N(c2ccc([N+](=O)[O-])c(C(F)(F)F)c2)C1=O [nilutamide] (first compound 0.02 µM, partner dose 5 µM) was tested. Which cell count did it give?
Its cell count is 120%.

Which cell count does the source give for `C[C@]12O[C@H](C[C@]1(O)CO)n1c3ccccc3c3c4c(c5c6ccccc6n2c5c31)CNC4=O` [Lestaurtinib] + CO[C@H]1C[C@@H]2CC[C@@H](C)[C@@](O)(O2)C(=O)C(=O)N2CCCC[C@H]2C(=O)O[C@H]([C@H](C)C[C@@H]2CC[C@@H](OCCO)[C@H](OC)C2)CC(=O)[C@H](C)/C=C(\C)[C@@H](O)[C@@H](OC)C(=O)[C@H](C)C[C@H](C)/C=C/C=C/C=C/1C [everolimus] (first compound 0.02 µM, partner dose 0.1 µM) here?
Its cell count is 86.4%.

How did the cell count turn out when `N.N.[Cl][Pt][Cl]` [cisplatin] + CN1CCN(c2ccc3nc(-c4c(N)c5c(F)cccc5[nH]c4=O)[nH]c3c2)CC1 [Dovitinib] (first compound 8 µM, partner dose 0.5 µM) was run?
Its cell count is 58.6%.

`Cn1cc(C2=C(c3cn(C4CCN(Cc5ccccn5)CC4)c4ccccc34)C(=O)NC2=O)c2ccccc21` [Enzastaurin] + O=C(O)c1ccc2c(c1)nc(Nc1cccc(Cl)c1)c1ccncc12 [CX4945] (first compound 4 µM, partner dose 2 µM) was tested. Which cell count did it give?
The cell count was 113%.

`N.N.[Cl][Pt][Cl]` [cisplatin] + NC(=O)Nc1cc(-c2cccc(F)c2)sc1C(=O)N[C@H]1CCCNC1 [AZD7762] (first compound 8 µM, partner dose 0.1 µM) was tested. Which cell count did it give?
The cell count was 41.4%.

`N.N.[Cl][Pt][Cl]` [cisplatin] + C[C@@H]1CCN(C(=O)CC#N)C[C@@H]1N(C)c1ncnc2[nH]ccc12 [CP690550] (first compound 8 µM, partner dose 5 µM) was tested. Which cell count did it give?
Its cell count is 82.9%.

Which cell count does the source give for `C[C@]12O[C@H](C[C@]1(O)CO)n1c3ccccc3c3c4c(c5c6ccccc6n2c5c31)CNC4=O` [Lestaurtinib] + O=C(Nc1cccc(Cl)c1)Nc1ncc(CCNc2ncnc3ccsc23)s1 [SNS314] (first compound 0.02 µM, partner dose 0.004 µM) here?
Its cell count is 82.7%.

With `C[C@]12O[C@H](C[C@]1(O)CO)n1c3ccccc3c3c4c(c5c6ccccc6n2c5c31)CNC4=O` [Lestaurtinib] + O=C(O)c1ccc(-c2c[nH]c3ncc(-c4ccccc4)cc23)cc1C1CCCC1 [GSK650394] (first compound 0.02 µM, partner dose 0.8 µM) as the molecule, how does the cell count read?
Its cell count is 98.4%.

With `Cn1cc(C2=C(c3cn(C4CCN(Cc5ccccn5)CC4)c4ccccc34)C(=O)NC2=O)c2ccccc21` [Enzastaurin] + CN(NC(=O)CC(=O)NN(C)C(=S)c1ccccc1)C(=S)c1ccccc1 [STA4783] (first compound 4 µM, partner dose 0.03 µM) as the molecule, how does the cell count read?
The cell count was 146%.

`Cn1cc(C2=C(c3cn(C4CCN(Cc5ccccn5)CC4)c4ccccc34)C(=O)NC2=O)c2ccccc21` [Enzastaurin] + Clc1ccc(Nc2nnc(Cc3ccncc3)c3ccccc23)cc1 [vatalanib] (first compound 4 µM, partner dose 10 µM) was tested. Which cell count did it give?
Its cell count is 81.4%.

How did the cell count turn out when `Cn1cc(C2=C(c3cn(C4CCN(Cc5ccccn5)CC4)c4ccccc34)C(=O)NC2=O)c2ccccc21` [Enzastaurin] + CCCCCCCCc1ccc(CCC(N)(CO)CO)cc1 [fingolimod] (first compound 4 µM, partner dose 10 µM) was run?
Its cell count is 44.9%.

With `N.N.[Cl][Pt][Cl]` [cisplatin] + O=C(O)c1ccc(-c2c[nH]c3ncc(-c4ccccc4)cc23)cc1C1CCCC1 [GSK650394] (first compound 8 µM, partner dose 0.8 µM) as the molecule, how does the cell count read?
The cell count was 90.9%.

With `Cn1cc(C2=C(c3cn(C4CCN(Cc5ccccn5)CC4)c4ccccc34)C(=O)NC2=O)c2ccccc21` [Enzastaurin] + O=C(CCCCCCC(=O)Nc1ccccc1)NO [vorinostat] (first compound 4 µM, partner dose 0.4 µM) as the molecule, how does the cell count read?
The cell count was 99.5%.

How did the cell count turn out when `Cn1cc(C2=C(c3cn(C4CCN(Cc5ccccn5)CC4)c4ccccc34)C(=O)NC2=O)c2ccccc21` [Enzastaurin] + COc1ccc(C2=N[C@@H](c3ccc(Cl)cc3)[C@@H](c3ccc(Cl)cc3)N2C(=O)N2CCNC(=O)C2)c(OC(C)C)c1 [Nutlin-3] (first compound 4 µM, partner dose 0.5 µM) was run?
The cell count was 88.8%.

How did the cell count turn out when `N.N.[Cl][Pt][Cl]` [cisplatin] + CS(=O)(=O)CCNCc1ccc(-c2ccc3ncnc(Nc4ccc(OCc5cccc(F)c5)c(Cl)c4)c3c2)o1 [lapatinib] (first compound 8 µM, partner dose 4 µM) was run?
Its cell count is 130%.

`Cn1cc(C2=C(c3cn(C4CCN(Cc5ccccn5)CC4)c4ccccc34)C(=O)NC2=O)c2ccccc21` [Enzastaurin] + Nc1ccn([C@@H]2O[C@H](CO)[C@@H](O)C2(F)F)c(=O)n1 [gemcitabine] (first compound 4 µM, partner dose 0.002 µM) was tested. Which cell count did it give?
The cell count was 85.6%.

With `C[C@]12O[C@H](C[C@]1(O)CO)n1c3ccccc3c3c4c(c5c6ccccc6n2c5c31)CNC4=O` [Lestaurtinib] + NCC(=O)Nc1ccc(-n2nc(C(F)(F)F)cc2-c2ccc3c(ccc4ccccc43)c2)cc1 [OSU03012] (first compound 0.02 µM, partner dose 5 µM) as the molecule, how does the cell count read?
Its cell count is 56.9%.
